Measurements: PubChem BioAssay (NCATS)
Where “and” joins values, the source holds several entries; their conditions need not be identical. Identical values can stand only once. The inconclusive results got no clear call from the source; some entries with a clear call stand among them for comparison. A potency beside an inconclusive call is a rough fit, not a confirmed value. Calls of active or inactive are those of the source. Calls follow the shape of the dose curve; as a rule, active = well fitted curve in the direction sought with a large enough effect; inconclusive = small, poorly fitted or top-dose-only effect, or another doubt; inactive = no such curve, though single readings can be large; an effect the other way counts as inactive or inconclusive.

What was measured:
[1] = Primary qHTS for inhibitors of nuclear receptor binding SET domain protein 2 (NSD2) in an isogenic RCH-ACV NSD2 p.E1099K mutant (9B) (AID 1645876); also: nearly all actives have a fitted effect of over 70% in size
[2] = Primary qHTS for inhibitors of nuclear receptor binding SET domain protein 2 (NSD2) in an RCH-ACV wild type WT cells (2C) (AID 1645877); conditions: activity change, negative = cell killing: at 44.9 µM (top of the series); also: nearly all actives have a fitted effect of over 70% in size
[3] = Primary fluorescence-based thiol-reactive (MSTI) qHTS assay for identification of artifact compounds. (AID 1845221);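 also: thiol-reactive compounds lower the probe fluorescence signal; nearly all actives have a fitted effect of over 65% in size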
How it was run: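 One-hour, room-temperature, dark incubation of compound with 4 uM MSTI in PBS (pH 7.4, 2% DMSO) precedes a fluorescence read at 525 nm excitation, 598 nm emission; Hill-equation fitting yields concentration-response values.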

CRL-7250 = normal cell line; assay: Cytotoxic Profiling of Annotated Libraries Using Quantitative High-Throughput Screening (AID 1296008); conditions: Five cell lines viability, CellTiter-Glo ATP luminescence, 48-72 h; max response: stronger effect = lower value; also: nearly all actives have a fitted effect of over 60% in size; as to max response: % is scaled to controls: 0 for no effect and ±100 for the full control effect
How it was run: (§1)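 Cytotoxicity was measured as CellTiter-Glo ATP luminescence, read after 10 min at room temperature. Compound treatment of the cells lasted 48 or 72 hr at 37 degrees Celsius in a qHTS format.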

HEK293 = assay: as above; conditions: Five cell lines viability, CellTiter-Glo ATP luminescence, 48-72 h; max response: stronger effect = lower value
How it was run: as §1

HaCat = assay: as above; conditions: Five cell lines viability, CellTiter-Glo ATP luminescence, 48-72 h; max response: stronger effect = lower value
How it was run: as §1

C33A = assay: Primary qHTS to identify gynecologic anti-cancer compounds using libraries of approved drugs and bioactive compounds (AID 1345084); conditions: Gynecologic cancer cell panel viability, ATPlite luminescence, 48 h; series mostly up to 57.5 µM; also: nearly all actives have a fitted effect of over 55% in size; as to activity change, negative = cytotoxicity: % is scaled to controls: 0 for no effect and ±100 for the full control effect
How it was run: (§2)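 In this quantitative HTS, cell killing is estimated from loss of ATP-dependent luciferase light. Cells see five compound concentrations over a 48 h exposure.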

CAOV3 = assay: as above; conditions: Gynecologic cancer cell panel viability, ATPlite luminescence, 48 h; series mostly up to 57.5 µM
How it was run: as §2

CASKI = assay: as above; conditions: Gynecologic cancer cell panel viability, ATPlite luminescence, 48 h; activity change, negative = cytotoxicity: at 57.5 µM (top of the series)
How it was run: as §2

Es-2 = assay: as above; conditions: Gynecologic cancer cell panel viability, ATPlite luminescence, 48 h; series mostly up to 57.5 µM
How it was run: as §2

Hek293T = assay: as above; conditions: Gynecologic cancer cell panel viability, ATPlite luminescence, 48 h, control line for the selectivity index; series mostly up to 57.5 µM
How it was run: as §2

JEG-3 = assay: as above; conditions: Gynecologic cancer cell panel viability, ATPlite luminescence, 48 h; series mostly up to 57.5 µM
How it was run: as §2

OV90 = assay: as above; conditions: Gynecologic cancer cell panel viability, ATPlite luminescence, 48 h; series mostly up to 57.5 µM
How it was run: as §2

PA-1 = assay: as above; conditions: Gynecologic cancer cell panel viability, ATPlite luminescence, 48 h; series mostly up to 57.5 µM
How it was run: as §2

SKOV3 = assay: as above; conditions: Gynecologic cancer cell panel viability, ATPlite luminescence, 48 h; series mostly up to 57.5 µM
How it was run: as §2

Tov-21-G = assay: as above; conditions: Gynecologic cancer cell panel viability, ATPlite luminescence, 48 h; activity change, negative = cytotoxicity: at 57.5 µM (top of the series)
How it was run: as §2

Tov112D = assay: as above; conditions: Gynecologic cancer cell panel viability, ATPlite luminescence, 48 h; activity change, negative = cytotoxicity: at 57.5 µM (top of the series)
How it was run: as §2

[4] = P-glycoprotein substrates identified in KB-8-5-11 adenocarcinoma cell line, qHTS therapeutic library screen (AID 1346987); also: nearly all actives have a fitted effect of over 65% in size
How it was run: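 Steps: plate 500 KB-8-5-11 cells/well in DMEM + 10% FCS (colchicine removed); pin compounds in dose-response; incubate 72 h, 37 degree C, 5% CO2; add CellTiter-Glo, 5 min; read luminescence.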
Potency is read from the fitted curve at half-maximal effect; tags tell the direction and shape of the fitted curve.

SMILES: Nc1ncnc2n[nH]c(Nc3ccc(F)cc3)c12
- Potency [1]: inconclusive: 18.3 µM [inhibitor, partial curve] and inconclusive: 20.6 µM [inhibitor, single point]
- Potency [2]: inconclusive: 16.3 µM [inhibitor, partial curve] and inconclusive: 23.1 µM [inhibitor, single point]
- Potency [3]: inconclusive: 21.2 µM [inhibitor, partial curve]
- Potency (CRL-7250): active: 10.3 µM
- Potency (HEK293): inconclusive: 29.1 µM [inhibitor, single point]
- Potency (HaCat): inconclusive: 23.1 µM [inhibitor, single point]
- Potency (C33A): inconclusive: 25.1 µM [cytotoxic, single point]
- Potency (CAOV3): inconclusive: 31.6 µM [cytotoxic, single point]
- Potency (CASKI): inconclusive: 22.4 µM [cytotoxic, partial curve]
- Potency (Es-2): inconclusive: 28.2 µM [cytotoxic, single point]
- Potency (Hek293T): inconclusive: 39.8 µM [cytotoxic, single point]
- Potency (JEG-3): inconclusive: 39.8 µM [cytotoxic, single point]
- Potency (OV90): inconclusive: 31.6 µM [cytotoxic, single point]
- Potency (PA-1): active: 25.1 µM
- Potency (SKOV3): inconclusive: 28.2 µM [cytotoxic, partial curve, poor fit]
- Potency (Tov-21-G): inconclusive: 28.2 µM [cytotoxic, single point]
- Potency (Tov112D): inconclusive: 39.8 µM [cytotoxic, single point]

SMILES: C=C1C(=O)O[C@@H]2/C=C(\CO)CC/C=C(/C=O)C[C@@H](O)[C@@H]12
- Potency [4]: inconclusive: 25.9 µM [inhibitor, single point]
- Potency [3]: inconclusive: 11.9 µM [inhibitor, partial curve]
- Potency (CRL-7250): inconclusive: 29.1 µM [inhibitor, single point]
- Potency (HEK293): active: 8.2 µM
- Potency (HaCat): active: 18.4 µM
- Potency (C33A): inconclusive: 25.1 µM [cytotoxic, single point]
- Potency (CAOV3): inconclusive: 25.1 µM [cytotoxic, partial curve, poor fit]
- Potency (Hek293T): active: 28.2 µM
- Potency (OV90): inconclusive: 39.8 µM [cytotoxic, single point]
- Potency (PA-1): inconclusive: 20 µM [cytotoxic, single point]
- Potency (SKOV3): inconclusive: 22.4 µM [cytotoxic, partial curve, poor fit]
- Potency (Tov-21-G): active: 14.1 µM

SMILES: CN(Cc1ccc(C(C)(C)C)cc1)Cc1cccc2ccccc12
- Potency [4]: inconclusive: 23.1 µM [inhibitor, single point]
- Potency (CRL-7250): inconclusive: 5.96 µM [inhibitor, single point]
- Potency (HEK293): inconclusive: 33.5 µM [inhibitor, single point]
- Potency (HaCat): inconclusive: 0.75 µM [inhibitor, full curve]
- Potency (C33A): inactive
- Potency (SKOV3): inactive

SMILES: COc1ccc(OC(=O)N(CC(=O)O)Cc2ccc(OCCc3nc(-c4ccccc4)oc3C)cc2)cc1
- Potency [1]: inconclusive: 16.8 µM [inhibitor, partial curve, poor fit]
- Potency [2]: inconclusive: 29.9 µM [inhibitor, single point]
- Potency (CRL-7250): inconclusive: 33.5 µM [inhibitor, single point]
- Potency (HEK293): inconclusive: 18.8 µM [inhibitor, single point]
- max response (HaCat): inactive: -6.17%
- Potency (CAOV3): inconclusive: 39.8 µM [cytotoxic, single point]
- Potency (Es-2): inactive
- Potency (Tov-21-G): inactive
- Potency (Tov112D): inactive

SMILES: C=C1CC[C@@H]2[C@](C)(CO)[C@H](O)CC[C@@]2(C)[C@@H]1CC(=O)C1=CCOC1=O
- Potency [3]: inactive
- Potency (CRL-7250): inconclusive: 18 µM [inhibitor, single point]
- Potency (HEK293): inconclusive: 20.2 µM [inhibitor, single point]
- Potency (HaCat): inconclusive: 0.0321 µM [inhibitor, full curve, poor fit]
- Potency (CAOV3): inconclusive: 31.6 µM [cytotoxic, single point]
- Potency (CASKI): inconclusive: 28.2 µM [cytotoxic, single point]
- Potency (Es-2): inconclusive: 28.2 µM [cytotoxic, single point]
- Potency (JEG-3): inconclusive: 22.4 µM [cytotoxic, single point]
- Potency (PA-1): inconclusive: 14.1 µM [cytotoxic, partial curve, poor fit]
- Potency (Tov-21-G): inconclusive: 28.2 µM [cytotoxic, single point]
- Potency (Tov112D): inconclusive: 14.1 µM [cytotoxic, single point]

SMILES: CCC(C(=O)OCCN1CCOC(c2ccccc2)C1C)c1ccccc1 (centres undefined)
- Potency (CRL-7250): inconclusive: 33.5 µM [inhibitor, single point]
- Potency (HEK293): inconclusive: 23.7 µM [inhibitor, single point]
- outcome (HaCat): inactive

SMILES: CN(C)CCCN1c2ccccc2Sc2ccccc21
- Potency [4]: inconclusive: 6.23 µM [inhibitor, partial curve]
- Potency [1]: inconclusive: 29.9 µM [inhibitor, single point]
- Potency [2]: inconclusive: 29.9 µM [inhibitor, single point]
- max response (CRL-7250): inactive: 0.274%
- Potency (HEK293): inconclusive: 33.5 µM [inhibitor, single point]
- outcome (HaCat): inactive
- Potency (OV90): inconclusive: 39.8 µM [cytotoxic, single point]

SMILES: Nc1nccn2c(C3CCC(C(=O)O)CC3)nc(-c3cc4cccc(Cl)c4[nH]3)c12 (centres undefined)
- Potency [4]: active: 1.46 µM
- Potency [2]: active: 1.15 µM and active: 4.17 µM
- Potency [3]: active: 6.7 µM
- Potency (CRL-7250): active: 1.46 µM
- Potency (HEK293): active: 5.17 µM
- Potency (HaCat): inconclusive: 29.1 µM [inhibitor, single point]
- Potency (C33A): inconclusive: 11.2 µM [cytotoxic, partial curve]
- Potency (CAOV3): inconclusive: 3.16 µM [cytotoxic, full curve]
- Potency (CASKI): inconclusive: 17.8 µM [cytotoxic, partial curve]
- Potency (Es-2): active: 28.2 µM
- Potency (Hek293T): inconclusive: 6.31 µM [cytotoxic, partial curve, poor fit]
- Potency (JEG-3): inconclusive: 39.8 µM [cytotoxic, single point]
- Potency (OV90): active: 10 µM
- Potency (SKOV3): active: 3.16 µM
- Potency (Tov112D): inconclusive: 0.708 µM [cytotoxic, full curve]

SMILES: COc1ccc(NC(=O)N2CCc3c2ccc2ccccc32)cc1N1CCN(C)CC1
- Potency [4]: inconclusive: 20.6 µM [inhibitor, single point]
- Potency [1]: active: 14.5 µM
- Potency [3]: inconclusive: 1.34 µM [inhibitor, full curve]
- Potency (CRL-7250): inconclusive: 20.6 µM [inhibitor, single point]
- Potency (HEK293): inconclusive: 18.4 µM [inhibitor, single point]
- Potency (HaCat): inconclusive: 29.1 µM [inhibitor, single point]
- Potency (C33A): inconclusive: 31.6 µM [cytotoxic, single point]
- Potency (CAOV3): inconclusive: 35.5 µM [cytotoxic, single point]
- Potency (PA-1): inconclusive: 31.6 µM [cytotoxic, single point]
- Potency (SKOV3): inconclusive: 39.8 µM [cytotoxic, single point]

SMILES: COc1cc2c(cc1OC)C(=O)C(CC1CCN(Cc3ccccc3)CC1)C2 (centres undefined)
- Potency [4]: active: 8.2 µM
- Potency [1]: inconclusive: 16.8 µM [inhibitor, single point]
- Potency (CRL-7250): inconclusive: 18.8 µM [inhibitor, partial curve, poor fit]
- Potency (HEK293): inconclusive: 29.9 µM [inhibitor, single point]
- Potency (HaCat): inconclusive: 33.5 µM [inhibitor, single point]
- Potency (CAOV3): inconclusive: 35.5 µM [cytotoxic, single point]
- Potency (OV90): inconclusive: 12.6 µM [cytotoxic, partial curve]
- Potency (PA-1): inconclusive: 39.8 µM [cytotoxic, single point]
- Potency (SKOV3): inconclusive: 39.8 µM [cytotoxic, single point]

SMILES: O=C(O)/C=C/c1ccc(-c2ccc(O)c(C34CC5CC(CC(C5)C3)C4)c2)cc1
- Potency (CRL-7250): inconclusive: 0.291 µM [inhibitor, full curve]
- Potency (HEK293): active: 0.731 µM
- Potency (HaCat): inconclusive: 0.82 µM [inhibitor, full curve, poor fit]
- Potency (C33A): active: 1.58 µM
- Potency (CAOV3): inconclusive: 0.631 µM [cytotoxic, full curve, poor fit]
- Potency (CASKI): active: 1.78 µM
- Potency (Es-2): active: 0.631 µM
- Potency (Hek293T): active: 2 µM
- Potency (JEG-3): active: 2.82 µM
- Potency (OV90): active: 10 µM
- Potency (PA-1): active: 2.24 µM
- Potency (SKOV3): active: 0.631 µM
- Potency (Tov-21-G): active: 0.794 µM

SMILES: CN(C)Cc1ccc(-c2cnn3c(-c4cccc(NC(=O)c5cccc(C(F)(F)F)c5)c4)ccnc23)cc1
- Potency [4]: inconclusive: 20.6 µM [inhibitor, single point]
- Potency [2]: active: 4.09 µM
- Potency (CRL-7250): inconclusive: 25.9 µM [inhibitor, single point]
- Potency (HEK293): active: 7.31 µM
- Potency (HaCat): inconclusive: 23.1 µM [inhibitor, single point]
- Potency (C33A): inconclusive: 39.8 µM [cytotoxic, single point]
- Potency (CAOV3): inconclusive: 39.8 µM [cytotoxic, single point]
- Potency (CASKI): inconclusive: 39.8 µM [cytotoxic, single point]
- Potency (Hek293T): inconclusive: 25.1 µM [cytotoxic, single point]
- Potency (JEG-3): inconclusive: 31.6 µM [cytotoxic, single point]
- Potency (OV90): inconclusive: 25.1 µM [cytotoxic, partial curve, poor fit]
- Potency (SKOV3): inconclusive: 39.8 µM [cytotoxic, single point]
